The list shows a part of the results.

This assay relates to PfAP2-HC AP2 domain (GST-tagged). Briefly: gcPBM binding intensity (ln(normalized median fluorescence intensity)); higher = stronger DNA binding. The essentials:
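GST-tagged P. falciparum DNA-binding domains, expressed in E. coli (about 25 μg on average), were applied for 1 h to an Agilent 4 × 180k array of primer-extended double-stranded 36-bp intergenic genomic probes plus negative controls. The binding buffer was 1× PBS with 1% milk, 0.2 mg/ml BSA, 0.5% salmon testes DNA and 0.03% Triton X-100. Bound protein was detected with Alexa488 anti-GST antibody and scanned at 488 nm. Binding intensity is the highest Masliner-normalised natural-log median intensity across replicate spots of either probe orientation.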
For “ATATATATATATTTATGTACTTAATAATTTATTCAC [XGTACX_site7301]”, the “gcPBM binding intensity (ln)” value was 9.65. Regarding “TTTTTTTTTTAATTCGCACACTGTCTTCATACAATT [CACACA_site1379]”, the “gcPBM binding intensity (ln)” value came to 10.2. For “TGCAGTCTGGAGAAAAGTACATAGTATCTGGTAACC [XGTACX_site2019]” the value was 9.52. On to “TCATTTCACGGACACACACACACAATATATTTCCTT [CACACA_site6023]”, for which the “gcPBM binding intensity (ln)” value was 10.9. For “AAAAAATATTTTTACAGTACATATATATAAAATGTT [XGTACX_site3215]” the value was 9.6; for “TAACAAAGGAAAGATATACACACGTATGCATGATAA [CACACA_site2520]”, 10.1; for “CATTAATATATATATACATGCACGTTTTAAAAAAAA [TGCATGCA_site875]”, 9.58. To “ATGGGAATATAATTATGTACATATAAAAATTATAAA [XGTACX_site5336]” belongs 9.6; to “TAATTATGCAGACACACACACACACGCAACTAAAAA [CACACA_site7253]”, 10.5. For “GTGTAAATAAGGATATATAACAATCAACAAAACATA [CACACA_negctrl_site1759]”, the “gcPBM binding intensity (ln)” value was found to be 9.9. “TGTATGAAATATATTACACACATATATAATATATAT [CACACA_site793]”: the “gcPBM binding intensity (ln)” value worked out at 9.8.

As to “ATATTTTTCAAACATCGTACATTATGAGTTAAAATT [XGTACX_site584]”, the “gcPBM binding intensity (ln)” value turned out to be 9.34. For the sequence “ATACACAAAATTATTAAATCAATAAATATATGGTTT [CACACA_negctrl_site353]”, the “gcPBM binding intensity (ln)” value stood at 9.57.

“AAAATACATAAATGTTCACACATTAAAAAGCAGAAG [CACACA_site5346]”: the “gcPBM binding intensity (ln)” value is 9.88. To “TTTATAAAGAAACACACACACATGTGAACATAAAAA [CACACA_site1908]” belongs 10.2; to “TATGTCAGATGAAAGGGTACATAATATAATATATTT [XGTACX_site8062]”, 9.55; to “TTATAAATGAATAAATGTACAAAATATATATATATA [XGTACX_site8829]”, 9.66. To CATAACATAAAATAGGTGCACAAAAATTGTAATTGA belongs 10.3. To “CACACCCACCAACACACACACACACCCACCCATATA [CACACA_site366]” belongs 11; to “TTGTAATATATGTATTGTACGCATATAACAATTATT [XGTACX_site3652]”, 9.62; to “TTCAGTGTATACATATGTACATATATATATATATAT [XGTACX_site1621]”, 10. For the sequence “ATTTTTATTTGTTACGCATGCATAAAAGTGCATACT [TGCATGCA_site547]”, the “gcPBM binding intensity (ln)” value was 9.63. With “ATTTGTAATATTAAATGTACAGGTAAGAAATATCAG [XGTACX_site1562]”, the “gcPBM binding intensity (ln)” value came out at 9.71. To “TAAGGAAAAAAAATATGTACTTATAGTTCCTTCTTT [XGTACX_site2202]” belongs 9.62. To “TAAATATATTTATACACACACACCAAAGCAATAGAT [CACACA_site7393]” belongs 10.5; to “GGATTCAAAAAAAAAAATAAAAGTAAATAATAAATA [TGCATGCA_negctrl_site348]”, 9.41; to “TTCAATATACATATGTGTACTAAAATAAATAGAAAA [XGTACX_site5708]”, 9.61.

For “ATTACAACATTTTATACACACGTGATTATTAATTTT [CACACA_site5581]”, the “gcPBM binding intensity (ln)” value was determined as 9.86. “TATATTTCAGGGGGGAGTACAAATTTTTTTATATAA [XGTACX_site1600]”: the “gcPBM binding intensity (ln)” value came out at 10. For “TTTATGAAGTAAAAATATAAATTCACAAAGTTAAAA [CACACA_negctrl_site1476]” the value was 9.6; for “AAGAACAGAACGTACACACACATATTTATATTTATA [CACACA_site7594]”, 10.2. For “TTTTCAAAGATATATACACACATGCATATTACGGTG [CACACA_site6505]” the value was 9.85; for “TTTTTGAGTGCACATACACACAGACATACATTTAAA [CACACA_site5813]”, 9.79; for CATTATGTACAAAAAGTGCAATATATATTAACACTG, 9.61. For “TTATATATATATATATATATATATATATATATAAAT [GTGCAC_negctrl_site126]” the value was 9.46; for “AACAAAATAAGAAAACGTACAAATGTTTCAAATTCT [XGTACX_site1544]”, 9.75; for “TATGTATATTCTTTCAGTACACATAATGTTGTCATA [XGTACX_site8845]”, 9.66. For the sequence “AAAATGTTATTGGAAAGTACAAAAAAAATTATATAA [XGTACX_site4074]”, the “gcPBM binding intensity (ln)” value worked out at 9.61.

Turning to “TGTATTAACAAAAAGGTGCGGATATATATAAAAAAT [GTGCAC_site9473]”, the “gcPBM binding intensity (ln)” value was 9.91. Regarding “TTAATATATATATATATATATATATTTTTATTTTTT [CACACA_negctrl_site763]”, the “gcPBM binding intensity (ln)” value was determined as 9.51.

For “ATAAAACGTACAATGGTGCATATAAATAATATATAT [GTGCAC_site9960]”, the “gcPBM binding intensity (ln)” value amounted to 9.98. For “CATATATAGATATATACACACATATATAAATAAATA [CACACA_site6759]” the value was 9.97; for “TTCCTCTTAATATGTGCACACTAAATTATAACATAA [CACACA_site3260]”, 9.82. Take “CATACCATACATAAAACACACAAAATTTACATAATA [CACACA_site3100]”: the “gcPBM binding intensity (ln)” value is 9.94. For “TATAGTTTTATTATTTATGTGTTAAAATTATACAAG [TGCATGCA_negctrl_site246]” the value was 9.42.

In the case of ACCCATTTTAATTTAGTGCACATTTTACCTTTATAC, the “gcPBM binding intensity (ln)” value amounted to 10.1. To “TTCTGCAGCAATGTTTTTTTTAAATATTTATATGGT [CACACA_negctrl_site1815]” belongs 9.66; to “AAAAAAATAACAAAGTGTACTTTTATATTTTACATA [XGTACX_site8954]”, 9.4; to “TTTTTTTCTTTTTCAAAAAAAAAAAAAAAAAAAATA [GTGCAC_negctrl_site329]”, 8.93.

Turning to “GCTAGTTTTTTTTGGCGTACAGTACCGGTTTACTTT [XGTACX_site2606]”, the “gcPBM binding intensity (ln)” value was found to be 9.7. Consider “AATATTTATAAATTTACACACACACGGGTGAACATA [CACACA_site6979]”, for which the “gcPBM binding intensity (ln)” value came out at 10.3. To “TTTAATTCCATAAGTAAACACACAAATGCCAAAATT [CACACA_site9049]” belongs 9.76; to “ATTCTAAATTAAAATACACACATATATACATAATAT [CACACA_site2792]”, 9.87; to “CAATTTGGTGTACAGGTGCACATGCCTCACGATAAA [GTGCAC_site9650]”, 9.61.

For the sequence “AAAAAAAAAAAAAAATGTACATATTAAGTATAATTA [XGTACX_site4616]”, the “gcPBM binding intensity (ln)” value came out at 9.6. For “TTAGCTCAATTTTTGGGTACACACAAATGTATAATA [XGTACX_site5003]” the value was 9.61; for “GAAAAATGTAAATACATATATGTACACAAATATATA [GTGCAC_negctrl_site557]”, 9.76; for “TATGTATGCCTGTTTTGTACTTAAGAAAATGTTGCT [XGTACX_site8443]”, 9.62. To “AAAAAAAAAAAAAAAAGTACATAATATAAAATCTAA [XGTACX_site6019]” belongs 9.34; to “TATGTAAAAACAGGCACACATATATCATATATATAT [CACACA_site619]”, 9.96; to “AAAAAAAAATATCACACACACATAAATATAAACCAA [CACACA_site2279]”, 10.5. With “AAAAAAAAAAAAACTACACACATAAAATATATTGTG [CACACA_site805]”, the “gcPBM binding intensity (ln)” value is 9.74. Turning to “TAAAACATCAAGGGGTGTACAAAAAAGATGAACAGG [XGTACX_site6929]”, the “gcPBM binding intensity (ln)” value is 9.78. For “ATTGGGTTCATCAGCACACACAACATCATGTAATAA [CACACA_site5093]” the value was 10.1; for “AGAGCATAATAAAACACACACATACATACATATATA [CACACA_site935]”, 10.3.

As to “AGGCACTTATAATAATGTACATAAATAAAAAGAAAA [XGTACX_site6037]”, the “gcPBM binding intensity (ln)” value was 9.66. For “TATAAATATATATGTACACACATATACATGTTGAAT [CACACA_site3118]” the value was 9.86. On to “TATAAACATAAATATACACACAAACATCTATGTATT [CACACA_site4804]”, for which the “gcPBM binding intensity (ln)” value was 10. For “TACATATATATTTGTTCACACACACCCAAAAAAAAA [CACACA_site8788]” the value was 10.3; for “TCTATGTAGTTTTTATGTACTAAATAAATAAATAAA [XGTACX_site2599]”, 9.35. As for “TAGAAGCAGAAACACACACACATACATACACATACA [CACACA_site1467]”, the “gcPBM binding intensity (ln)” value turned out to be 10.2. To “TTTTCAATATATATTTGTACTTTATTTTATGATATT [GTGCAC_negctrl_site732]” belongs 9.89; to “GCATTCATTTTTAATACACACAAAAAAAAAATAAAA [CACACA_site2408]”, 9.65. To ACTATTAACAGTGTAGTGCAAAAAGGTTAATTATTA belongs 10.1.

Consider “TAAATGTCCTTATTTGCACACACACCGATAAGAAAT [CACACA_site5723]”, for which the “gcPBM binding intensity (ln)” value stood at 10. “TTTGAAATGATATATAAACACACATATATATATATA [CACACA_site9170]”: the “gcPBM binding intensity (ln)” value was 10.1. For “CTAACAACCAAACGCACACACACAAAAAAAAAAATA [CACACA_site400]” the value was 10.8; for “ATATTGAATTCCAACACATGCAAAACTTTCGGTTTT [TGCATGCA_site485]”, 9.64; for “TATTAAAAGGTGAGTACACACATATATGCGTATATA [CACACA_site2102]”, 9.85. To “AACAACTATTAATTTACACACATGTATATATCTTAC [CACACA_site7459]” belongs 10; to “TACGCACAAAAATATACACACACACCGATATATTTA [CACACA_site9213]”, 10.3. For “AGACATTTTTAAGCAAAACATTCATCATCTTATAAT [CACACA_negctrl_site1539]” the value was 9.55; for “TATTTTACACATTTACGTACATAAATATATATATAT [XGTACX_site8788]”, 9.92; for “AAAAAAAAAAAAGGCACACAAACATATGTAGACATA [CACACA_site2284]”, 10. “TCGTGTGTAATATTATATATATATATATAATATATA [TGCATGCA_negctrl_site289]”: the “gcPBM binding intensity (ln)” value amounted to 9.69. For TTTTAAGGTGTGAAGGTGCAAAAAGGTAAATAGGAA the value was 9.8. For “TAAACAGAAGCACATACACACACTCAAAAAAAAAAA [CACACA_site3051]” the value was 10.5; for “CACAAACACCCAAACACACACACACCGACATACATA [CACACA_site4410]”, 11.1; for “AAAATACATAAACACACACACACACCGATATATATA [CACACA_site9186]”, 11.6.

The values are drawn from the supplement of paper PMC11417369.
